# Laboratory results published in PubChem BioAssay AID588342 (National Center for Advancing Translational Sciences (NCATS), 2011).
# The whole screen tested about 360,000 compounds, of which about 25,000 (6.9%) were called active. Inconclusive results, whose numbers are uncertain, are shown with a selection of clear calls. Calls come from the whole dose curve; as a rule, active = well fitted inhibition curve with a large enough effect; inconclusive = small, poorly fitted or top-dose-only effect; inactive = flat fitted curve, though single readings scatter. A potency beside an inconclusive call is a rough fit, not a confirmed value.
# Target: Luciferin 4-monooxygenase (Photinus pyralis) (UniProt P08659)
# Assay: qHTS profiling assay for firefly luciferase inhibitor/activator using purifed enzyme and Km concentrations of substrates (counterscreen for miR-21 project); note: nearly all actives have a fitted effect of over 55% in size;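 for activity change, negative = inhibition: plate controls were vehicle for no effect and reference inhibitor for full effect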
# Conditions: purified FLuc, luminescence inhibition; series mostly up to 57.5 µM; activity change, negative = inhibition: at the top concentration
# Method in brief: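 Purified P. pyralis luciferase (10nM final) with 10uM D-luciferin and 10uM ATP (Km levels) in 50mM Tris acetate pH 7.5, 10mM Mg acetate, 0.01% Tween-20, 0.05% BSA; qHTS 6-point titration, ~60 µM downward; luminescence read.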
# Potency is the fitted concentration of half-maximal effect; tags give direction and shape of the fitted curve.
# Sequence of UniProt P08659 (P08659 whole entry, looked up): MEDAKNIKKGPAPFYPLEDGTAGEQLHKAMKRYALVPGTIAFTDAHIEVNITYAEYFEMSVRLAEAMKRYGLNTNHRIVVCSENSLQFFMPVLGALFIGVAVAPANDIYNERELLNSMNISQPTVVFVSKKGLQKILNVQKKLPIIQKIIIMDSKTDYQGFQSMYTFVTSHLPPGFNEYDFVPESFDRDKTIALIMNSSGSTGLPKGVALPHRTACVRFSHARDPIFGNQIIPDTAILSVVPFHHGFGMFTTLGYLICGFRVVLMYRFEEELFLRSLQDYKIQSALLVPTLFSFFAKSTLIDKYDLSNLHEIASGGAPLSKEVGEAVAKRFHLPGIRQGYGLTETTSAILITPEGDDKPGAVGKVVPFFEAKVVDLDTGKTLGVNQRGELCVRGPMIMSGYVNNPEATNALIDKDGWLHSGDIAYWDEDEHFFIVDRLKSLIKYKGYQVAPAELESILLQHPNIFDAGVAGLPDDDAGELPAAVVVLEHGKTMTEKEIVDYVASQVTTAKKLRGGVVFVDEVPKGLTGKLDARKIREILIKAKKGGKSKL
Compound,Potency,"activity change, negative = inhibition"
Cc1noc(C)c1COc1ccc(C(=O)NCCOc2ccccc2)cc1,"inconclusive: 37.9 µM [inhibitor, partial curve, poor fit]",–
CC1CC(C)CN(C(=O)CSc2nnc(-c3ccc(F)cc3)o2)C1 (stereo not given),–,inactive: 2.01%
CCc1cc(=O)[nH]c(SCc2nc(-c3ccccc3C)no2)n1,"inconclusive: 15.1 µM [inhibitor, partial curve]",–
O=C(O)c1ccccc1Sc1ncnc2sc3c(c12)CCC3,"inconclusive: 37.9 µM [inhibitor, partial curve, poor fit]",–
CC1CCc2nn(CC(=O)NCCCN3CCOCC3)cc2C1 (stereo not given),–,inactive: 2.12%
CCC1C(=O)n2nc(-c3ccccc3)cc2N=C1C (stereo not given),active: 13.5 µM,–
Cc1ccc(NNC(=O)C2CCC2)cc1C,–,inactive: -2.48%
O=C(O)c1ccccc1NC(=O)N1c2ccccc2Sc2ccccc21,"inconclusive: 26.9 µM [inhibitor, partial curve, poor fit]",–
CCOc1cc(C(=O)N2CCCN(C)CC2)cc(OCC)c1OCC,–,inactive: -1.12%
O=C(O)c1ccccc1C(=O)Nc1nc(-c2ccccc2)cs1,"inconclusive: 21.3 µM [inhibitor, single point]",–
CC1CCCN(Cc2c(O)ccc3c(=O)c(-c4ccc(Cl)cc4)c(C(F)(F)F)oc23)C1 (stereo not given),–,inactive: 1.5%
COc1cc(/C=N/NC(=O)c2cc(C3CC3)[nH]n2)cc(OC)c1OC,"inconclusive: 30.1 µM [inhibitor, partial curve, poor fit]",–
Cc1cccc(C(=O)Nc2ccc(N3CCN(S(C)(=O)=O)CC3)cc2)c1,"inconclusive: 15.1 µM [inhibitor, partial curve, poor fit]",–
CCC(C(=O)NC(C)(C)C)N(C(=O)Cn1nnc(-c2ccccc2F)n1)c1cccc2c1CCCC2 (stereo not given),–,inactive: -0.246%
CCN(CCCCCCN)c1ccc2c(=O)[nH][nH]c(=O)c2c1,"inconclusive: 26.9 µM [inhibitor, partial curve, poor fit]",–
Cc1nc2c(C(=O)NCCC(C)C)cnn2c(C)c1Cc1c(F)cccc1Cl,–,inactive: -0.181%
Cc1nccc(-c2ccc(-n3cnc4ccccc43)cc2)n1,"inconclusive: 37.9 µM [inhibitor, partial curve, poor fit]",–
CC(=O)c1nn(-c2cccc(Br)c2)cc1C(=O)c1cccc2ccccc12,–,inactive: -2.37%
CCn1nnnc1SCC(=O)Nc1ccc2c(c1)OCCO2,active: 15.1 µM,–
O=C(NCc1cccnc1)c1sc2ccccc2c1Cl,"inconclusive: 19 µM [inhibitor, partial curve, poor fit]",–
Cc1cccc(C(=O)NC(=O)Nc2ccc(-n3nc(C(F)(F)F)cc3C(F)(F)F)cc2)c1,–,inactive: 2.27%
Cc1cccc(C(=O)Nc2cccc(C(=O)Nc3cc(C)ccn3)c2)c1,active: 26.9 µM,–
COc1ccc(N2C3=C(CC4=C2CC(C)(C)CC4=O)C(=O)CC(C)(C)C3)cc1,"inconclusive: 19 µM [inhibitor, partial curve]",–
Cc1c2cnn(CC(=O)NCc3ccc(F)cc3)c(=O)c2c(C)n1Cc1ccccc1Cl,–,inactive: 1.52%
COc1ccc(-c2nc(C)c(CCNC(=O)c3ccccc3Br)s2)cc1OC,"inconclusive: 23.9 µM [inhibitor, single point]",–

Compound,Potency,"activity change, negative = inhibition"
COC(=O)CSCC(=O)Nc1nnc(-c2cccc(C)c2)s1,"inconclusive: 16.9 µM [inhibitor, partial curve, poor fit]",–
O=C(Nc1cccc(C(F)(F)F)c1)c1ccc(F)c(S(=O)(=O)N2CCc3ccccc3C2)c1,–,inactive: 1.45%
Cc1cccc(C(=O)Nc2nnc(S(=O)(=O)N3CCCCCC3)s2)c1,active: 26.9 µM,–
COc1ccc(Nc2nc(N3CCN(S(=O)(=O)N(C)C)CC3)nc3ccccc23)cc1,"inconclusive: 37.9 µM [inhibitor, partial curve, poor fit]",–
CS(=O)(=O)N1CCc2cc(C(=O)NC3CC3)ccc21,–,inactive: -1.66%
NC(=O)c1c(NC(=O)c2ccccc2)sc2c1CCN(Cc1ccccc1)C2,–,inactive: -1.97%
COC(=O)c1ccc(C2/C(=C(/O)c3ccc(OC)cc3)C(=O)C(=O)N2Cc2ccco2)cc1 (stereo not given),"inconclusive: 23.9 µM [inhibitor, single point]",–
CC(O)[C@@]1(O)CC[C@H]2[C@@H]3CC[C@H]4C[C@@H](O)CC[C@]4(C)C3=CC[C@@]21C (stereo not given in full),–,inactive: 0.163%
Cc1cc(C)cc(Oc2ccccc2/C=N\O)c1,–,inactive: 3.55%
O=C(N/N=C/c1cc2c(cc1Br)OCO2)c1ccccn1,active: 2.69 µM,–
CCOC(=O)COn1c(=O)c(-c2ccccc2)[n+]([O-])c2ccccc21,–,inactive: 0.523%
Cc1cc(NC(=O)c2cc(C(C)C)on2)no1,active: 15.1 µM,–
CCOc1ccc(NC(=O)COc2ccc3c(c2)CCC3)cc1OC,–,inactive: -3.24%
NC(=O)c1cc(S(=O)(=O)NCCc2ccc(S(N)(=O)=O)cc2)cs1,–,inactive: -2.48%
O=C(N/N=C/c1ccc2nccnc2c1)c1ccc(Br)cc1,"inconclusive: 10.7 µM [inhibitor, partial curve]",–
O=C(Nc1ccc(F)cc1)N1CCc2ccccc2C1,active: 23.9 µM,–
Cc1nn2c(-c3cccnc3)ccnc2c1-c1ccccc1,active: 10.7 µM,–
C=C1SC(Nc2c(C)cccc2C)=NC12CCCCC2,–,inactive: 0.83%
CSc1ccccc1-c1n[nH]c(=S)o1,"inconclusive: 16.9 µM [inhibitor, partial curve]",–
CN=c1scc(-c2ccc(OC)cc2)n1/N=C(\C)c1cccnc1,active: 12 µM,–
Cc1cc(C)nc(N/N=C/C2=C(N3CCOCC3)C(=C/c3ccccc3)/CC2)n1,–,inactive: -2.44%
Cc1ccsc1C(=O)NCCc1nnc2ccccn12,"inconclusive: 23.9 µM [inhibitor, partial curve]",–
CN(C)c1ccc(C(CNS(=O)(=O)c2ccc3ccccc3c2)c2c[nH]c3ccccc23)cc1 (stereo not given),"inconclusive: 37.9 µM [inhibitor, partial curve, poor fit]",–
CN(Cc1ccccc1)c1ccc(-c2nc(-c3cccnc3)no2)cc1[N+](=O)[O-],"inconclusive: 15.1 µM [inhibitor, partial curve]",–
Cc1cc(OCCOc2cccc3cccnc23)cc(C)c1Cl,"inconclusive: 30.1 µM [inhibitor, partial curve, poor fit]",–

Compound,Potency,"activity change, negative = inhibition"
Cc1ccc(C)c(N2CCN(C(=O)C3CCN(S(=O)(=O)c4cccc5nsnc45)CC3)CC2)c1,–,inactive: 7.4%
CCC(C(=O)NCCc1cc(OC)ccc1OC)n1nc(C)c2sc3ccccc3c2c1=O (stereo not given),"inconclusive: 26.9 µM [inhibitor, partial curve]",–
CCc1ccc(/C=c2\s/c(=C\C(=O)C(C)(C)C)[nH]c2=O)cc1,"inconclusive: 26.9 µM [inhibitor, partial curve]",–
CCc1ccnc(NC(=O)Nc2ccc(OCc3ccccc3)cc2)c1,–,inactive: -2.87%
CN(C)/C=C/C(=O)c1ccc(-n2cccc2)cc1,active: 10.7 µM,–
CCOC(=O)c1cnc2nc(NCc3ccc(OCC)cc3)[nH]n2c1=O,"inconclusive: 30.1 µM [inhibitor, single point]",–
Cc1ccccc1S(=O)(=O)c1cc(C#N)c(=O)[nH]c1N,"inconclusive: 23.9 µM [inhibitor, partial curve, poor fit]",–
O=C(COC(=O)c1cccc2c1C(=O)c1ccccc1C2=O)NC1CCCCC1,"inconclusive: 37.9 µM [inhibitor, partial curve, poor fit]",–
Cc1ccc(C)c(N(C)S(=O)(=O)c2ccc3[nH]cc(C(=O)NC4CCCC4)c(=O)c3c2)c1,"inconclusive: 21.3 µM [inhibitor, partial curve, poor fit]",–
CCOc1ccccc1N=Cc1c(O)c2ccccc2oc1=O,"inconclusive: 8.49 µM [inhibitor, partial curve]",–
CC(Sc1nnc(-c2cccnc2)o1)C(=O)NC1CCCCC1 (stereo not given),–,inactive: 3.76%
Cc1ccc(NC(=O)c2ccccc2OCC(=O)Nc2ccccc2F)cc1S(=O)(=O)N(C)C,active: 7.57 µM,–
CC(C)(C)NC(=O)CCSc1nc(-c2ccc3c(c2)OCO3)cc(C(F)(F)F)n1,–,inactive: -5.19%
CC(C)c1ccc(OCC(=O)Nc2ccc3oc(=O)ccc3c2)cc1,"inconclusive: 37.9 µM [inhibitor, single point]",–
Cc1ccc(OCc2cc(=O)n3cc(C)sc3n2)c(C)c1,–,inactive: -15.2%
CC1(C)CC(=O)C(C(C2=C(O)CC(C)(C)CC2=O)c2cccs2)C(=O)C1 (stereo not given),active: 16.9 µM,–
Cc1cccc(NC(=O)/C(C#N)=C\c2cccnc2)c1,"inconclusive: 30.1 µM [inhibitor, single point]",–
COCC(=O)OCC(=O)c1cc(C)n(-c2ccc(Br)cc2)c1C,active: 12 µM,–
CCC(=O)Nc1cccc(C(=O)/C=C/c2cc(Br)ccc2OC)c1,"inconclusive: 37.9 µM [inhibitor, single point]",–
COc1ccc(Cc2nc3ccc(C(=O)NCC(C)(C)OC)cc3o2)cc1,active: 19 µM,–
Cc1ccc(NC(=O)Nc2ccccc2F)cc1S(=O)(=O)N1CCOCC1,"inconclusive: 37.9 µM [inhibitor, partial curve, poor fit]",–
c1cncc(-c2cnc3ccccc3c2)c1,"inconclusive: 26.9 µM [inhibitor, single point]",–
Cc1c(C(=O)Nc2ccccc2F)cnn1-c1ccccc1,active: 5.36 µM,–
Cc1cc(NC(=O)CSc2ccc(-c3ccccc3)nn2)no1,"inconclusive: 33.8 µM [inhibitor, partial curve, poor fit]",–
O=[N+]([O-])c1ccc(N2CCCCC2)c(-c2nn[nH]n2)c1,"inconclusive: 15.1 µM [inhibitor, partial curve, poor fit]",–
